Data reported in the antibiotic and cytotoxicity screens of Wong et al. (2023).
The other results are listed elsewhere or left out.

These compounds were tested on HepG2 (assay: cytotoxicity call (relative viability < 0.9)). Conditions: 10 µM.

Row | Compound | cytotoxicity call
1 | COc1ccccc1C#Cc1ccc2c(c1)O[C@@H](CN(C)C(C)=O)[C@H](C)CN([C@@H](C)CO)S2(=O)=O | inactive
2 | O=C(NCC(F)(F)F)[C@@H]1c2ccccc2C(=O)N(Cc2ccccc2C(F)(F)F)[C@H]1c1ccc(CO)cc1 | inactive
3 | CN(C)CCCNC(=O)C[C@@H]1CC[C@H]2[C@H](COc3ccc(NS(C)(=O)=O)cc3C(=O)N2C)O1 | inactive
4 | C[C@@H]1CN([C@@H](C)CO)C(=O)Cc2cc(NS(=O)(=O)c3cn(C)cn3)ccc2O[C@H]1CN(C)Cc1ccncc1 | inactive
5 | C[C@H]1CCCCO[C@H](CN(C)Cc2ccc3c(c2)OCO3)[C@@H](C)CN([C@@H](C)CO)C(=O)c2cc(NC(=O)CCC(F)(F)F)ccc2O1 | inactive
6 | O=C(C[C@H]1CC[C@H]2[C@@H](COC[C@@H](O)CN2C(=O)c2ccc3c(c2)OCO3)O1)NCCN1CCCCC1 | inactive
7 | Cc1ccc(S(=O)(=O)Nc2ccc3c(c2)C(=O)N([C@H](C)CO)C[C@H](C)[C@H](CN(C)C(=O)Nc2ccccc2)OCCCC[C@@H](C)O3)cc1 | inactive
8 | COc1ccc(CN(C)C[C@@H]2OCCCC[C@H](C)Oc3ccc(NC(=O)C4CCCCC4)cc3C(=O)N([C@@H](C)CO)C[C@@H]2C)cc1 | inactive
9 | C[C@@H]1CCCCO[C@H](CN(C)S(=O)(=O)c2ccccc2)[C@@H](C)CN([C@@H](C)CO)C(=O)c2cc(NC(=O)Nc3ccc(F)cc3)ccc2O1 | inactive
10 | O=C(COP(=O)(O)O)[C@@H](O)[C@H](O)[C@H](O)COP(=O)(O)O | inactive
11 | Cc1ccc(S(=O)(=O)Nc2ccc3c(c2)C(=O)N([C@H](C)CO)C[C@@H](C)[C@H](CN(C)C(=O)Nc2ccc(F)cc2)OCCCC[C@H](C)O3)cc1 | active
12 | Cc1noc(C)c1NC(=O)Nc1ccc2c(c1)C(=O)N([C@@H](C)CO)C[C@@H](C)[C@@H](CN(C)S(=O)(=O)c1ccccc1)O2 | inactive
13 | C=CC[C@H](CC(=O)N(CCO)Cc1ccccc1)C(=O)N[C@@H](COC(=O)[C@@H](CC=C)Cc1ccc(F)cc1)Cc1c[nH]c2ccccc12 | active
14 | C[C@@H]1CN([C@@H](C)CO)C(=O)c2cc(NC(=O)Nc3ccc(F)cc3)ccc2O[C@@H](C)CCCCO[C@@H]1CN(C)S(=O)(=O)c1ccccc1 | inactive
15 | C[C@@H]1CCCCO[C@@H](CN(C)C(=O)Nc2cccc3ccccc23)[C@@H](C)CN([C@H](C)CO)C(=O)c2cc(NC(=O)Nc3cccc4ccccc34)ccc2O1 | inactive
16 | COc1ccc(S(=O)(=O)Nc2ccc3c(c2)C(=O)N([C@@H](C)CO)C[C@@H](C)[C@@H](CN(C)Cc2ccc(Cl)c(Cl)c2)OCCCC[C@@H](C)O3)cc1 | active
17 | COc1ccc(NC(=O)N(C)C[C@@H]2OCCCC[C@@H](C)Oc3ccc(NC(=O)NC(C)C)cc3C(=O)N([C@H](C)CO)C[C@@H]2C)cc1 | inactive
18 | C[C@@H]1CN([C@@H](C)CO)C(=O)CCCn2cc(nn2)CO[C@H]1CN(C)C(=O)Nc1ccc(C(F)(F)F)cc1 | inactive
19 | C[C@H]1CN([C@@H](C)CO)C(=O)c2cccc(NC(=O)Nc3cccc4ccccc34)c2O[C@H]1CN(C)Cc1ccccc1 | inactive
20 | C[C@@H]1CN([C@@H](C)CO)C(=O)c2cc(NC(=O)Nc3ccc4c(c3)OCO4)ccc2O[C@@H](C)CCCCO[C@@H]1CN(C)Cc1ccccc1 | active
21 | C[C@@H]1CN([C@@H](C)CO)C(=O)c2cc(NC(=O)CCC(F)(F)F)ccc2O[C@@H]1CN(C)S(=O)(=O)c1cn(C)cn1 | inactive
22 | COC(=O)c1sc2ccccc2c1NC(=O)c1ccc(S(=O)(=O)N2C[C@@]3(C)C[C@@H]2CC(C)(C)C3)cc1 | inactive
23 | O=C(C[C@H]1C=C[C@H](NC(=O)Cc2ccccn2)[C@H](CO)O1)NCCCN1CCOCC1 | inactive
24 | CCS(=O)(=O)N1CC[C@]2(CC1)CN([C@H](CO)c1[nH]c3cc(ccc3c12)OC)C(=O)Cc1ccccn1 | inactive
25 | Cc1coc2c1C(=O)C(=O)c1c-2ccc2c1CCCC2(C)C | active
26 | CCOC(=O)CSc1nnc2c3sc4nc(N5CCOCC5)c5c(c4c3ncn12)CC(C)(C)OC5 | active
27 | CCN1C(C)(C)CC(Oc2ccc(C(=O)Nc3ccc(NC(=O)Nc4cc(C(C)(C)C)on4)cc3)nc2)CC1(C)C | active
28 | COc1ccc2c3c(n(c2c1)C)[C@H](CO)N(C[C@]13CN(C1)C(=O)c1ccccn1)S(=O)(=O)c1ccc(cc1)C | inactive
